In the supplement of paper PMC4967469:
pIC50: −log10 of the molar value. IC50 is the fitted dose that halves viability relative to control wells, and lower means more sensitive; where the fit passes the top or lowest dose, that dose stands as a limit. For AUC the same curve is integrated over the 256-fold range of doses and scaled to a fraction; the more sensitive the line, the further below 1. For part of these data: The top dose, if marked as inferred, is not printed in the source and was worked back from the curve model.

Experiments:
Assay in all cases: Viability of human cancer cell lines after 72 h of drug (GDSC screen)
JW-7-52-1 = compound: CCC(=O)N1CCN(c2ccc(-n3c(=O)ccc4cnc5ccc(-c6cnc7ccccc7c6)cc5c43)cc2C(F)(F)F)CC1 [JW-7-52-1]; conditions: top dose 1.2 µM; top dose inferred
Experimental: (§1)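 Human cancer cell lines in 384-well plates, medium with 10% serum, drug for 72 h over a 256-fold dose range (nine 2-fold or five 4-fold steps up to the top dose). Adherent lines were fixed and stained with the nucleic acid dye Syto60, suspension lines read with resazurin; signal relative to control wells, capped at 0 and 100%. One two-parameter sigmoid per drug and line, fitted in a mixed model over all curves with the slope shared within a line.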

Z-LLNle-CHO = compound: CCCC[C@@H](C=O)NC(=O)[C@H](CC(C)C)NC(=O)[C@H](CC(C)C)NC(=O)OCc1ccccc1 [Z-LLNle-CHO]; conditions: top dose 2.56 µM; top dose inferred
Experimental: as §1

XL-880 = compound: COc1cc2c(Oc3ccc(NC(=O)C4(C(=O)Nc5ccc(F)cc5)CC4)cc3F)ccnc2cc1OCCCN1CCOCC1 [XL-880]; conditions: top dose 5.12 µM; top dose inferred
Experimental: as §1

Tubastatin A = compound: CN1CCc2c(c3ccccc3n2Cc2ccc(C(=O)NO)cc2)C1 [Tubastatin A]; conditions: top dose 20 µM
Experimental: as §1

IPA-3 = compound: Oc1ccc2ccccc2c1SSc1c(O)ccc2ccccc12 [IPA-3]; conditions: top dose 32 µM; top dose inferred
Experimental: as §1

ZG-10 = compound: CN(C)C/C=C/C(=O)Nc1ccc(C(=O)Nc2cccc(Nc3nccc(-c4cccnc4)n3)c2)cc1 [ZG-10]; conditions: top dose 10 µM; top dose inferred
Experimental: as §1

Temozolomide = compound: Cn1nnc2c(C(N)=O)ncn2c1=O [Temozolomide]; conditions: top dose 30 µM
Experimental: as §1

CI-1040 = compound: O=C(NOCC1CC1)c1ccc(F)c(F)c1Nc1ccc(I)cc1Cl [CI-1040]; conditions: top dose 10 µM; top dose inferred
Experimental: as §1

Rapamycin = compound: CO[C@H]1C[C@@H]2CC[C@@H](C)[C@@](O)(O2)C(=O)C(=O)N2CCCC[C@H]2C(=O)O[C@H]([C@H](C)C[C@@H]2CC[C@@H](O)[C@H](OC)C2)CC(=O)[C@H](C)/C=C(\C)[C@@H](O)[C@@H](OC)C(=O)[C@H](C)C[C@H](C)/C=C/C=C/C=C/1C [Rapamycin]; conditions: top dose 0.1 µM; top dose inferred
Experimental: as §1

Cell Line	AUC (JW-7-52-1)	pIC50 (JW-7-52-1)	AUC (Z-LLNle-CHO)	pIC50 (Z-LLNle-CHO)	AUC (XL-880)	pIC50 (XL-880)	AUC (Tubastatin A)	pIC50 (Tubastatin A)	AUC (IPA-3)	pIC50 (IPA-3)	AUC (ZG-10)	pIC50 (ZG-10)	AUC (Temozolomide)	pIC50 (Temozolomide)	AUC (CI-1040)	pIC50 (CI-1040)	AUC (Rapamycin)	pIC50 (Rapamycin)
ATN-1 (T-cell lymphoblastic leukaemia, suspension)	0.374	7.46	0.683	6.30	0.707	5.93	0.821	4.97	0.928	< 4.49	0.731	5.57	0.837	4.74	0.914	< 5.00	0.872	7.07
COLO-668 (small cell lung carcinoma, adherent)	0.688	6.60	0.979	< 5.59	0.613	6.19	0.955	< 4.70	0.963	< 4.49	0.84	5.16	0.986	< 4.52	0.971	< 5.00	0.876	7.00
SIMA (neuroblastoma, adherent)	0.864	< 5.92	0.98	< 5.59	0.611	6.17	0.95	< 4.70	0.98	< 4.49	0.889	< 5.00	0.984	< 4.52	0.92	< 5.00	0.984	< 7.00
EVSA-T (breast, adherent)	0.2	7.94	0.789	6.02	0.798	5.69	0.919	< 4.70	0.982	< 4.49	0.695	5.70	0.991	< 4.52	0.941	< 5.00	0.857	7.20
NCI-H1770 (non-small cell lung carcinoma, suspension)	0.887	5.98	0.884	5.66	0.628	6.16	0.966	< 4.70	0.777	4.95	0.784	5.43	0.985	< 4.52	0.99	< 5.00	0.992	< 7.00
KURAMOCHI (ovary, adherent)	0.37	7.51	0.775	5.93	0.701	5.89	0.913	< 4.70	0.928	< 4.49	0.748	5.44	0.982	< 4.52	0.931	< 5.00	0.766	7.37
TUR (B-cell lymphoma, suspension)	0.965	< 5.92	0.97	< 5.59	0.54	6.39	0.852	4.86	0.974	< 4.49	0.525	6.14	0.888	4.53	0.947	< 5.00	0.957	< 7.00
LB2518-MEL (melanoma, adherent)	0.562	6.95	0.763	6.01	0.808	5.55	0.974	< 4.70	0.968	< 4.49	0.926	< 5.00	0.986	< 4.52	0.53	6.12	0.987	< 7.00
no-11 (glioma, adherent)	0.279	7.83	0.84	5.61	0.614	6.15	0.982	< 4.70	0.867	< 4.49	0.857	< 5.00	0.981	< 4.52	0.885	< 5.00	0.567	8.00
OCUB-M (breast, adherent)	0.147	8.12	0.685	6.31	0.745	5.84	0.927	< 4.70	0.838	4.76	0.689	5.71	0.989	< 4.52	0.952	< 5.00	0.04	> 9.41
